# From ChEMBL document CHEMBL4888484, “Replenishing the malaria drug discovery pipeline: Screening and hit evaluation of the MMV Hit Generation Library 1 (HGL1) against asexual blood stage Plasmodium falciparum ,using a nano luciferase reporter read-out” (2022)
# In all, about 150,000 compounds went through this assay and about 540 (0.36%) showed an effect of 50% or more. Some of the results follow.
# System: Plasmodium falciparum
# Assay: Primary screen in NF54 nanoGlo assay, in single point, at 2uM, 72h; a lower Z score goes with more inhibition
# Format: functional, Erythrocyte
# Details: timepoint 72 hour
Structure (SMILES),% Inhibition,Z score
Cc1ccc(O[C@@H](C)CNC(=O)CCc2cscn2)cc1,1%,-0.15
CNC(=O)c1ccc(-c2ccc(C(=O)NC3(C(N)=O)CCCC3)cc2)o1,-15%,2
c1cncc(-c2ncc(CN3CCOCC3)s2)c1,-5%,0.95
CC(C)c1noc(CN[C@@H](C)c2ccc(-c3cccc(C#N)c3)cc2)n1,-15%,1.46
CCN(CC)c1ccc(NS(=O)(=O)c2cc(-c3cc(C)no3)ccc2OC)c(C)c1,-20%,2.64
Cc1cc2nccc(NC(=O)N3CCOCC4(CC4)C3)n2n1,-10%,1.98
C=CCN1C[C@H](C)N(C(=O)c2ccc(-c3ccc(F)cc3O)cc2)C[C@@H]1C,8%,-1.04
O=S1(=O)C[C@H](NCCc2ccc(F)cc2)[C@@H](S(=O)(=O)c2ccccc2)C1,-4%,0.48
CN1CCC(N(CCc2ccccc2)C(=O)c2cccc(CO)c2)CC1,-8%,1.28
CN(C)Cc1ccc(-c2ccc[nH]c2=O)cc1,-7%,1.24
CS(=O)(=O)CC1(CC(=O)N2CCOCc3ccccc32)CC1,-17%,3.67
Cc1cc(Cl)ccc1NC(=O)c1n[nH]c2c1CCc1ccccc1-2,-5%,0.43
CCCc1cc(=O)n(-c2ccc(C(=O)N3CCNC[C@@H]3C)cc2)[nH]1,-4%,0.57
CC1(C)CC(=O)N(CC(=O)Nc2c(F)c(F)c(F)c(F)c2F)c2ccccc2S1(=O)=O,-6%,0.83
Cc1noc(C[C@H]2CCOC3(CCN(C(=O)c4cc(-c5ccc(F)cc5)n[nH]4)CC3)C2)n1,-10%,1.44
CCOc1ccc2c(c1)-c1c(ssc1=S)C(C)(C)N2C(=O)c1ccc2c(c1)OCO2,-4%,0.45
OC(COc1ccc(Cl)cc1Cl)CN1CCCN2CCCC2C1 (centres undefined),-10%,0.97
Cc1nccc(NCc2c(C)nn(C)c2C)c1Cl,-8%,1.03
CCS(=O)(=O)c1ccc(S(=O)(=O)N2C(C)CCCC2c2ccccc2)cc1 (centres undefined),3%,-0.47
O=C1O[C@](Nc2ccccc2)(c2ccccc2)c2ccccc21,-11%,2.04
Cc1ccc2c(c1)CN(CCNC(=O)c1cc(C(F)(F)F)n[nH]1)C[C@H](C)O2,-6%,1.11
CC(C)Oc1cc(N(C)C[C@H](O)CO)nc(N)n1,-18%,1.7
C[C@@H](CO)NS(=O)(=O)c1ccc(F)c(Br)c1F,-12%,1.48
C[C@@H](C(=O)NCc1cc2n(n1)CCN(C1CCCCC1)C2)N1CCCC1=O,-12%,1.51
CC(=O)NCC[C@H]1CCCCN1Cc1nc(C)cc(C)n1,-12%,1.63
Cc1ccc(C)c(S(=O)(=O)NCCNc2cc(N3CCOCC3)nc(C)n2)c1,-12%,1.98

Structure (SMILES),% Inhibition,Z score
Cc1cnc(C2CCOCC2)n1CC1CN(C(=O)c2ccsc2)C1,-17%,2.2
O=C(O)CC1(CC(=O)Nc2ccc3c(c2)OCCO3)CCCCC1,-9%,1.42
Cc1cccc(CN2CCN(Cc3cc(C#CCO)cs3)[C@@H](C)C2=O)c1,-1%,0.08
CC(C)N(Cc1ncc(C2OCCO2)s1)[C@@H](C)c1ccccc1,-7%,0.9
O=C(Cn1ncccc1=O)NCc1ccnc(-c2ccco2)c1,-5%,0.84
COCCc1noc(Cn2ccc3ccn(CC4CC4)c3c2=O)n1,3%,-0.28
CCN(Cc1cnn(C)c1)C(=O)[C@H]1CCO[C@@H]1c1ccnn1C(C)C,2%,-0.3
CCn1cc(-c2nc(C)c(C(=O)NCc3cccc(F)c3)s2)c2cccnc21,-3%,0.49
Cc1ccc(CN2CCc3ncn(CC(=O)NCc4ccccc4)c(=O)c3C2)cc1,-6%,1.02
Cc1cnc(C)c(N2CC(c3ncc(C4CC4)cn3)C2)n1,-3%,0.52
Cc1nn(CC(F)F)cc1C(=O)NC[C@H]1CC(=O)N(C)[C@@H]1c1cnn(C)c1C,0%,0.01
O=C(Nc1nc(-c2ccc3c(c2)OCCO3)cs1)C1CCCC1,-1%,0.12
CC(C)Cc1nc(CNC(=O)c2cc(Cl)c[nH]2)no1,-7%,1.47
O=C1c2ccccc2CCc2cccnc21,-7%,1.02
Nc1ncnc(NC[C@H]2CCCS2(=O)=O)c1Cl,-5%,0.65
COc1cccc(-c2cc3c(c(OC)c2)OCCN(S(=O)(=O)c2ccc(F)c(F)c2)C3)n1,-5%,0.83
COCC(=O)N[C@H]1CO[C@H]2[C@@H]1OC[C@@H]2Nc1nccc(-c2ccc(OC)cc2)n1,-5%,0.87
CN1CCC[C@H](Cn2ncc3ccccc3c2=O)C1,1%,-0.2
CC(C)C[C@@H](CO)NS(=O)(=O)Cc1cccc(F)c1,2%,-0.26
Cc1cc(C)cc(N2CCN(C(=O)[C@H]3C[C@@H]3c3ccccc3)CC2=O)c1,-10%,1.86
CC[C@H]1C(=O)NCCN1C(=O)Nc1cc(-c2ccco2)ccc1F,-7%,1.03
C#CCN1C(=O)[C@@]2(CC(=O)Nc3c2c(C)nn3-c2ncnc3[nH]cnc23)c2cccc(Cl)c21,0%,-0.03
CCOC(=O)c1cc(CN[C@@H](C)c2ccc(N3CCCCC3)cc2)on1,-8%,0.82
O=C(NC[C@@H]1CCCN2CCCC[C@H]12)c1cccc(NC(=O)c2ccc3c(c2)OCO3)c1,-3%,0.38
Cc1nc[nH]c1CN1C[C@H]2CC[C@@H](C1)N(C(=O)c1cc(C(C)C)oc1C)C2,-5%,0.89
Cc1cccc(CN2CCC[C@H](C(=O)c3ccc4c5c(cccc35)CC4)C2)n1,58%,-11.5
